# Laboratory results: PubChem BioAssay (NCATS)
# The list shows a part of the results. Shown are side measurements of this screen, not its main read-out; they come without a call. Compounds called inactive in the main read-out are mostly missing here. The note in brackets gives the kind of curve behind each potency; many fits are weak.
# Assay: qHTS Assay for Lipid Storage Modulators (AID 1519)
# Details: Drosophila S3 cells, BODIPY lipid droplet/cell ratio, laser cytometry; measured here: cell count channel max response; cells loaded with oleic acid
# Outline: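 Cells seeded at 5,000 per well were treated with compounds over a concentration series and loaded with oleic acid (400 uM, as added). Lipid droplet fluorescence (488 nm excitation, 500-530 nm channel) was read by laser-scanning cytometry and normalized to 20 uM Triacsin C.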
# Tags give direction and shape of the fitted curve.
row,SMILES,max response [%]
1,COc1ccc([N+](=O)[O-])c2c1CCN2C(=O)CC[C@H](N)C(=O)O,43.3
2,CCCCCCCC/C=C\CCCCCCCC(=O)N[C@@H](CO)Cc1ccc(O)cc1,60.8
3,COc1ccccc1-c1nc(N2CCN(C)CC2)c2ccccc2n1,40.5
4,Cc1nc2cnc(OCc3ccccc3)nc2n(Cc2ccc(F)cc2)c1=O,22.9
5,COc1cc2cc(Oc3ccc4ccc(=O)oc4c3)c(=O)oc2cc1O,86.5
6,CN(Cc1ccco1)c1ncnc2ccc(-c3cccc(NS(C)(=O)=O)c3)cc12,5.76
7,C#C[C@]1(O)CC[C@H]2[C@H]3CCC4=Cc5oncc5C[C@]4(C)[C@@H]3CC[C@]21C,59.8
8,O=c1c(-c2ccc(F)cc2)nc2cncnc2n1Cc1ccc(F)cc1,13.8
9,O=c1c(-c2cc(F)cc(F)c2)nc2cncnc2n1C1CC1,41.6
10,COc1ccc(-c2coc3ccc(OC4OC(COC(C)=O)C(OC(C)=O)C(OC(C)=O)C4OC(C)=O)cc3c2=O)cc1 (stereo not given),35.5
11,Cn1cc(-c2nc3cncnc3n(-c3ccccc3)c2=O)c2ccccc21,28.6
12,CC(C)OC(=O)c1cc2c(OC[C@@H](O)CNC(C)(C)C)cccc2[nH]1,44.5
13,COc1ccccc1CNc1cc(-c2ccccc2C(F)(F)F)ncn1,42
14,COCCNc1nc(-c2ccoc2)nc2ccccc12,26.4
15,Cc1nc2cnc(N3CCNCC3)nc2n(CCc2ccccc2)c1=O,34.9
16,COc1cc(OC)c2c(=O)c(-c3ccc4c(c3)OCO4)coc2c1,30.5
17,COc1ccccc1N1CCN(CCN2C(=O)c3ccccc3C(C)(C)C2=O)CC1,88
18,CN(C)c1ncnc2ccc(-c3cccc(C#N)c3)cc12,43.9
19,Cc1cccc(CNc2ncncc2-c2ccccc2CN(C)C)c1,35
20,COc1ccc2[nH]cc(CCNc3ncncc3-c3cccc(C#N)c3)c2c1,22.1

row,SMILES,max response [%]
1,Cc1noc(C)c1-c1nc(NC2CC2)c2ccccc2n1,24.1
2,CCNc1ncc2nc(-c3ccc(OC)cc3)c(=O)n(Cc3ccc(F)cc3)c2n1,1.7
3,COc1ccc(-c2nc3cnc(OC)nc3n(C)c2=O)cc1,30
4,COc1cc2c(C(=O)c3ccccc3)c3c4c(cc(OC)c(OC)c4c2cc1OC)CCN3C,-56.5
5,CS(=O)(=O)Nc1cccc(-c2cc(Nc3ccccc3)ncn2)c1,21.6
6,COc1cccc(-c2nc(NCc3ccccc3OC)c3ccccc3n2)c1,33.4
7,NC(=S)c1ccc[n+]([C@@H]2O[C@@H](COP(=O)([O-])OP(=O)(O)OC[C@H]3O[C@@H](n4cnc5c(N)ncnc54)[C@H](OP(=O)(O)O)[C@H]3O)C(O)C2O)c1 (stereo not given in full),28.1
8,CN(C)C(=O)c1ccc(-c2ccc3ncnc(N(C)Cc4ccco4)c3c2)cc1,15.9
9,COc1cccc(-c2nccc(NCc3ccc(OC)cc3OC)n2)c1,24.4
10,C=CC(C)(O)CCCC(C)CCCC(C)CCCC(C)C (stereo not given),66.4
11,CN(C)c1ncc2nc(-c3cccs3)c(=O)n(C)c2n1,23.9
12,COc1ncc2nc(-c3ccc(Cl)cc3)c(=O)n(CCc3ccccc3)c2n1,16.6
13,COc1ccc(C(=O)N2CCC[C@@]3(CCN(c4cccc(-c5ccccc5)c4)C3)C2)cc1,-3.77
14,NCCCCCCNS(=O)(=O)c1ccc2c(Cl)cccc2c1,92.5
15,CC(N)(Cc1ccc(O)cc1)C(=O)O (stereo not given),-44.8
16,COc1cccc2oc(-c3ccccc3)cc(=O)c12,109
17,CN(C)c1ncc2nc(-c3ccccc3)c(=O)n(CCc3ccccc3)c2n1,34.7
18,FC(F)(F)c1ccccc1-c1nccc(-n2ccnc2)n1,30.1
19,COc1cccc(Cn2c(=O)c(-c3ccc(Cl)cc3)nc3cncnc32)c1,3.55
20,CCCn1c(=O)c(C)cn2nc(N)nc12,91.9

# Same assay, conditions: Drosophila S3 cells, BODIPY lipid droplet/cell ratio, laser cytometry; measured here: cell number channel AC50; cells loaded with oleic acid
row,SMILES,AC50
1,COc1ccc([N+](=O)[O-])c2c1CCN2C(=O)CC[C@H](N)C(=O)O,"35500 nM [rising, single point]"
2,CCCCCCCC/C=C\CCCCCCCC(=O)N[C@@H](CO)Cc1ccc(O)cc1,"39800 nM [rising, single point]"
3,COc1ccccc1-c1nc(N2CCN(C)CC2)c2ccccc2n1,"17800 nM [rising, partial curve, poor fit]"
4,Cc1nc2cnc(OCc3ccccc3)nc2n(Cc2ccc(F)cc2)c1=O,"3160 nM [rising, partial curve, poor fit]"
5,COc1cc2cc(Oc3ccc4ccc(=O)oc4c3)c(=O)oc2cc1O,"35500 nM [rising, partial curve]"
6,CN(Cc1ccco1)c1ncnc2ccc(-c3cccc(NS(C)(=O)=O)c3)cc12,"1000 nM [rising, full curve]"
7,C#C[C@]1(O)CC[C@H]2[C@H]3CCC4=Cc5oncc5C[C@]4(C)[C@@H]3CC[C@]21C,"2000 nM [rising, full curve]"
8,O=c1c(-c2ccc(F)cc2)nc2cncnc2n1Cc1ccc(F)cc1,"251 nM [rising, full curve, poor fit]"
9,O=c1c(-c2cc(F)cc(F)c2)nc2cncnc2n1C1CC1,"15800 nM [rising, partial curve]"
10,COc1ccc(-c2coc3ccc(OC4OC(COC(C)=O)C(OC(C)=O)C(OC(C)=O)C4OC(C)=O)cc3c2=O)cc1 (stereo not given),"355 nM [rising, full curve, poor fit]"
11,Cn1cc(-c2nc3cncnc3n(-c3ccccc3)c2=O)c2ccccc21,"708 nM [rising, full curve, poor fit]"
12,CC(C)OC(=O)c1cc2c(OC[C@@H](O)CNC(C)(C)C)cccc2[nH]1,"28200 nM [rising, partial curve, poor fit]"
13,COc1ccccc1CNc1cc(-c2ccccc2C(F)(F)F)ncn1,"31600 nM [rising, partial curve]"
14,COCCNc1nc(-c2ccoc2)nc2ccccc12,"794 nM [rising, full curve, poor fit]"
15,Cc1nc2cnc(N3CCNCC3)nc2n(CCc2ccccc2)c1=O,"398 nM [rising, full curve]"
16,COc1cc(OC)c2c(=O)c(-c3ccc4c(c3)OCO4)coc2c1,"282 nM [rising, full curve]"
17,COc1ccccc1N1CCN(CCN2C(=O)c3ccccc3C(C)(C)C2=O)CC1,"7080 nM [rising, partial curve]"
18,CN(C)c1ncnc2ccc(-c3cccc(C#N)c3)cc12,"8910 nM [rising, partial curve]"
19,Cc1cccc(CNc2ncncc2-c2ccccc2CN(C)C)c1,"3980 nM [rising, full curve]"
20,COc1ccc2[nH]cc(CCNc3ncncc3-c3cccc(C#N)c3)c2c1,"100 nM [rising, full curve, poor fit]"

row,SMILES,AC50
1,Cc1noc(C)c1-c1nc(NC2CC2)c2ccccc2n1,"44.7 nM [rising, full curve]"
2,CCNc1ncc2nc(-c3ccc(OC)cc3)c(=O)n(Cc3ccc(F)cc3)c2n1,"794 nM [rising, partial curve]"
3,COc1ccc(-c2nc3cnc(OC)nc3n(C)c2=O)cc1,"3160 nM [rising, full curve, poor fit]"
4,COc1cc2c(C(=O)c3ccccc3)c3c4c(cc(OC)c(OC)c4c2cc1OC)CCN3C,"1000 nM [rising, full curve]"
5,CS(=O)(=O)Nc1cccc(-c2cc(Nc3ccccc3)ncn2)c1,"63.1 nM [rising, full curve, poor fit]"
6,COc1cccc(-c2nc(NCc3ccccc3OC)c3ccccc3n2)c1,"35.5 nM [rising, full curve]"
7,NC(=S)c1ccc[n+]([C@@H]2O[C@@H](COP(=O)([O-])OP(=O)(O)OC[C@H]3O[C@@H](n4cnc5c(N)ncnc54)[C@H](OP(=O)(O)O)[C@H]3O)C(O)C2O)c1 (stereo not given in full),"63.1 nM [falling, full curve, poor fit]"
8,CN(C)C(=O)c1ccc(-c2ccc3ncnc(N(C)Cc4ccco4)c3c2)cc1,"4470 nM [rising, partial curve, poor fit]"
9,COc1cccc(-c2nccc(NCc3ccc(OC)cc3OC)n2)c1,"1580 nM [rising, full curve]"
10,C=CC(C)(O)CCCC(C)CCCC(C)CCCC(C)C (stereo not given),"15800 nM [rising, partial curve, poor fit]"
11,CN(C)c1ncc2nc(-c3cccs3)c(=O)n(C)c2n1,"3160 nM [rising, full curve, poor fit]"
12,COc1ncc2nc(-c3ccc(Cl)cc3)c(=O)n(CCc3ccccc3)c2n1,"70.8 nM [rising, full curve]"
13,COc1ccc(C(=O)N2CCC[C@@]3(CCN(c4cccc(-c5ccccc5)c4)C3)C2)cc1,"7080 nM [rising, single point]"
14,NCCCCCCNS(=O)(=O)c1ccc2c(Cl)cccc2c1,"31600 nM [rising, partial curve, poor fit]"
15,CC(N)(Cc1ccc(O)cc1)C(=O)O (stereo not given),"7940 nM [falling, full curve, poor fit]"
16,COc1cccc2oc(-c3ccccc3)cc(=O)c12,"8910 nM [rising, partial curve]"
17,CN(C)c1ncc2nc(-c3ccccc3)c(=O)n(CCc3ccccc3)c2n1,"89.1 nM [rising, full curve]"
18,FC(F)(F)c1ccccc1-c1nccc(-n2ccnc2)n1,"447 nM [rising, full curve, poor fit]"
19,COc1cccc(Cn2c(=O)c(-c3ccc(Cl)cc3)nc3cncnc32)c1,"1410 nM [rising, partial curve]"
20,CCCn1c(=O)c(C)cn2nc(N)nc12,"4470 nM [rising, full curve, poor fit]"
